The full data set covers some 21,000 targets. This sample favours those with the largest changes.
Compound: CC1Cc2ccccc2N1C(=O)C1CCCN(C1)C(=O)CCl (mixture of isomers) [TRIM25 ligand 11 (diastereomer mixture)]
Experiment: probe-labelled cysteine peptide fold change vs DMSO (competition) (log2 fold change); higher = less target engagement (more negative = stronger competition)
Conditions: THP-1, incubation time: 4 h
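Further: competitive chemoproteomic profiling in live THP-1 cells with an iodoacetamide desthiobiotin (IA-DTB) probe, comparing probe-labelled peptide intensities in compound-treated cells against DMSO-treated controls.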

Chain of UniProt Q06124 (Q06124 whole entry, looked up): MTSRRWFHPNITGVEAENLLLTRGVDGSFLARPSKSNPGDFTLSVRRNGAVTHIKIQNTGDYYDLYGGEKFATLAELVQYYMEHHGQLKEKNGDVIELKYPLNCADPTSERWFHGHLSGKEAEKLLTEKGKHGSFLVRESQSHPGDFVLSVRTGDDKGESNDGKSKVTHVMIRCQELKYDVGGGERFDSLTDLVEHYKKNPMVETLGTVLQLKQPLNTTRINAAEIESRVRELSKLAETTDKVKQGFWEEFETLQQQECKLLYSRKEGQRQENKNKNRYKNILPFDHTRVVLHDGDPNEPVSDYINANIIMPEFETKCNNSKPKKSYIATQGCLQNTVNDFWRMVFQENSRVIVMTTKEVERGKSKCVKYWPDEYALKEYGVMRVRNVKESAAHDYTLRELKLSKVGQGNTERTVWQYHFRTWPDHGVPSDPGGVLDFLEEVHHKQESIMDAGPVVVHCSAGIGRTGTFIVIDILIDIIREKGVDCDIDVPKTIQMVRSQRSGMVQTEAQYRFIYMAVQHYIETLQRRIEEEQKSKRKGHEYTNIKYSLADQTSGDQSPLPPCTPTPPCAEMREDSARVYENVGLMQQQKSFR
Chain of UniProt P47897 (P47897 whole entry, looked up): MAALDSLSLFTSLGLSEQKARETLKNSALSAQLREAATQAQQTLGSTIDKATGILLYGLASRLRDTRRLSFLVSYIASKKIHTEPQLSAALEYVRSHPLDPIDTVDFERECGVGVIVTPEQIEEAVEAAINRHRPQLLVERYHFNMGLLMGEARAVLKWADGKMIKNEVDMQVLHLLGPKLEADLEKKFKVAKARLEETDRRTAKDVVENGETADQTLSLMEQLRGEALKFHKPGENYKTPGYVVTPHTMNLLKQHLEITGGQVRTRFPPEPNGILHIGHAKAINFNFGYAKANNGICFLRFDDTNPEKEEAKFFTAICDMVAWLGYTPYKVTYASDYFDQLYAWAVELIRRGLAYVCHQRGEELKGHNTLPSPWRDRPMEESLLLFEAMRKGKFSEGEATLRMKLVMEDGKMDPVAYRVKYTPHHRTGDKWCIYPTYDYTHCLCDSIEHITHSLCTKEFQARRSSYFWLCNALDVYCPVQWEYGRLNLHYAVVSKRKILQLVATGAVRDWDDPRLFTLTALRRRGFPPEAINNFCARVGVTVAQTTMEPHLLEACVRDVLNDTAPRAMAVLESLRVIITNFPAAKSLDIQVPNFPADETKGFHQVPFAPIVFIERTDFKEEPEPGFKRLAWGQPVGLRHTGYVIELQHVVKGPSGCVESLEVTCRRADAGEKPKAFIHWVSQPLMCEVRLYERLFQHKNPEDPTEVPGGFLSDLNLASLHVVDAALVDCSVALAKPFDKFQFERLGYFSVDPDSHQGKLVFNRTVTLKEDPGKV
Chain of UniProt Q8TDF6 (Q8TDF6 whole entry, looked up): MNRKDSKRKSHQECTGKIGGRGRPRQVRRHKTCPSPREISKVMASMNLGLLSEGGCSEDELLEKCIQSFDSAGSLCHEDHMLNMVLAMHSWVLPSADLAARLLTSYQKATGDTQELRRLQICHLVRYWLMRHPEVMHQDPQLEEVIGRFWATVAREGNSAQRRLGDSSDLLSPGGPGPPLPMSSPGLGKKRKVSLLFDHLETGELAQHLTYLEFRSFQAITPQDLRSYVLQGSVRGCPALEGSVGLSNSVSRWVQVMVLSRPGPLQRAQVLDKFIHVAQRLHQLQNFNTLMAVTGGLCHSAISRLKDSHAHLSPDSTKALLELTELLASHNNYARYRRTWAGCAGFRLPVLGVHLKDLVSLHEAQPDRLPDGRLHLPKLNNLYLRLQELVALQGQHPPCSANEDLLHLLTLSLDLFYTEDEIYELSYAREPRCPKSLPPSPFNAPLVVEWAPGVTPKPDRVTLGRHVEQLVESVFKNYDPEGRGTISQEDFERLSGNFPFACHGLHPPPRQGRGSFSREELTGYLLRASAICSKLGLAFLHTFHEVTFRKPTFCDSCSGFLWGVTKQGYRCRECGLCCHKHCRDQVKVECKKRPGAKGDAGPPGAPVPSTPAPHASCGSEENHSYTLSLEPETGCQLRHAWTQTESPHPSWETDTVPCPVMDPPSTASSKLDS
Chain of UniProt O94762 (O94762 whole entry, looked up): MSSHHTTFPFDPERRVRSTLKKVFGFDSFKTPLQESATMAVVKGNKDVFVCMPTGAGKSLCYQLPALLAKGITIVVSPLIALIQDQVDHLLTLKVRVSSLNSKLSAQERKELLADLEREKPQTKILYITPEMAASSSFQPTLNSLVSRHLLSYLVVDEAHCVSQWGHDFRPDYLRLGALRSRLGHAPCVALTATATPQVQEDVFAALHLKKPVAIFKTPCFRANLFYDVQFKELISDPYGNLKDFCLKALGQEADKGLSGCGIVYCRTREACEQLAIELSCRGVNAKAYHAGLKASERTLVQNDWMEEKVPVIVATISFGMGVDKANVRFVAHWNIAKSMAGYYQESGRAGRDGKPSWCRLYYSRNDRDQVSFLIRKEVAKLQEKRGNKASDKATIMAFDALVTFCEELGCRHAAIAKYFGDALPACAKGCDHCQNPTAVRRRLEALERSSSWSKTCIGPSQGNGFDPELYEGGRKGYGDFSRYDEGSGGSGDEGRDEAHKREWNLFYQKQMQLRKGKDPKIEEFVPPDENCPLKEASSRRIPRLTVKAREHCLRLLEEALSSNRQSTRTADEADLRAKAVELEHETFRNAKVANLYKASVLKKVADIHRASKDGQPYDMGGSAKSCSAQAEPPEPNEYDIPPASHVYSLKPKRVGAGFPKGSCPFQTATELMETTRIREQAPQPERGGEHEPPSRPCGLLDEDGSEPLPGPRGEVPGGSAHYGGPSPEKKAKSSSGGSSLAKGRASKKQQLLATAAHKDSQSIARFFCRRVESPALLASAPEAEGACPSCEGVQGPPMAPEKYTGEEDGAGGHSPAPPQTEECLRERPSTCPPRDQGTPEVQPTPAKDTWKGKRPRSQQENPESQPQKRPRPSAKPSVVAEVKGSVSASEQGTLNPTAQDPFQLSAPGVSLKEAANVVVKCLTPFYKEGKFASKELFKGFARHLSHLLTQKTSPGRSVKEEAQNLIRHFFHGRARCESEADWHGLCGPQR
Chain of UniProt Q13637 (Q13637 whole entry): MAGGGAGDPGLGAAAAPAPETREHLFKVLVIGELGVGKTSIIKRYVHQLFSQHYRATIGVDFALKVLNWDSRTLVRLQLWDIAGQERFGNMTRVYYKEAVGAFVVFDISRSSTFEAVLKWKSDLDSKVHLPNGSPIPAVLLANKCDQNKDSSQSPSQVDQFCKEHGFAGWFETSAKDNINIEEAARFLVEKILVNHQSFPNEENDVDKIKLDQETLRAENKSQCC
Chain of UniProt Q13200 (Q13200 whole entry, looked up): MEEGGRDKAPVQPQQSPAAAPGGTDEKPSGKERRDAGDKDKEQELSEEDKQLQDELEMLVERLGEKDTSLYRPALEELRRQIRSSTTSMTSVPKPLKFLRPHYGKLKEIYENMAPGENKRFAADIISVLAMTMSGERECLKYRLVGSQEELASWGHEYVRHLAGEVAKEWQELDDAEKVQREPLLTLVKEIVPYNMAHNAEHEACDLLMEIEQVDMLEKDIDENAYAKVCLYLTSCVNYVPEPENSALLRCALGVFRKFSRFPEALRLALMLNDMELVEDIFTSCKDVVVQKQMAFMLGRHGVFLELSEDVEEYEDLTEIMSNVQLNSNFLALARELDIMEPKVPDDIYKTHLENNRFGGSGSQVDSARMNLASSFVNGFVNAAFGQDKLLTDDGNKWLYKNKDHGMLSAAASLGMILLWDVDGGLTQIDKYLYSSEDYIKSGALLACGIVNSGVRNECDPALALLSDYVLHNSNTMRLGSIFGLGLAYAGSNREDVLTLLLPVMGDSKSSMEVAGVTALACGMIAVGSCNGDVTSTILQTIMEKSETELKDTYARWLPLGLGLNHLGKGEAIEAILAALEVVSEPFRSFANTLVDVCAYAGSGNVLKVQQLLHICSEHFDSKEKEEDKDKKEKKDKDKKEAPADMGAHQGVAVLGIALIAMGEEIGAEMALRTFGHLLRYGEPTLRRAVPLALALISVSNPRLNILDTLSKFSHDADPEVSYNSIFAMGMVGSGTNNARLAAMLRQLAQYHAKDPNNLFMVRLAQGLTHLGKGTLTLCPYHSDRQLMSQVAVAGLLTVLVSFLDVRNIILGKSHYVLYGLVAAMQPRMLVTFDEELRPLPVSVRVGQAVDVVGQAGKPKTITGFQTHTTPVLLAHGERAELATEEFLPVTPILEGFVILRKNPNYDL
Chain of UniProt Q7Z7A4 (Q7Z7A4 whole entry, looked up): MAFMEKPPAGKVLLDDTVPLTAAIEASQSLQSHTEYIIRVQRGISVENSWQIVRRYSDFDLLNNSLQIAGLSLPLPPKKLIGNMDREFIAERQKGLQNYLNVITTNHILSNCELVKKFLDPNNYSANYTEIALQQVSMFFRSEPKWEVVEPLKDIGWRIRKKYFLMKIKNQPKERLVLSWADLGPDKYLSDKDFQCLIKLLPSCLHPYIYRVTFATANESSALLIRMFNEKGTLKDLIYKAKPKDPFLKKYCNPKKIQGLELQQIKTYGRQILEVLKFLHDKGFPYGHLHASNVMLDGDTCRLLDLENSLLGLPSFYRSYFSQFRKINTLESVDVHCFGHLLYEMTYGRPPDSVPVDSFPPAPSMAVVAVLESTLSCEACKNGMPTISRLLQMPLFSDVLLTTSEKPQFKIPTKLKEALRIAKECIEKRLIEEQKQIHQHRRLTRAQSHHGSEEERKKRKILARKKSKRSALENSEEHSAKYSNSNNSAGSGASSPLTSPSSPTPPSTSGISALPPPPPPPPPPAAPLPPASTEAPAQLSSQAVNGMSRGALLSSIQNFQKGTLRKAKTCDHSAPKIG
Chain of UniProt P10153 (P10153 whole entry, looked up): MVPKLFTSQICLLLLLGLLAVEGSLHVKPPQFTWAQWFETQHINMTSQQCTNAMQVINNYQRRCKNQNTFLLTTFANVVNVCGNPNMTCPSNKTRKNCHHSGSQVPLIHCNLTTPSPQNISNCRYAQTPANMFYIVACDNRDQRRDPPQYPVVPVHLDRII

Question: Which results are given for “ROCK2_O75116_428_ENLLLSDSPSCR (UniProt O75116)”?
Answer: probe-labelled cysteine peptide fold change (10 µM): 0.109; probe-labelled cysteine peptide fold change (50 µM): -0.0572

Question: What does the source list for “RPL7_P18124_186_SLGKYGIICMEDLIHEIYTVGKR (UniProt P18124)”?
Answer: probe-labelled cysteine peptide fold change (10 µM): -0.462; probe-labelled cysteine peptide fold change (50 µM): -0.587

Question: How did the “probe-labelled cysteine peptide fold change” value (10 µM) turn out when “PTPN11_Q06124_490_GVDCDIDVPK (UniProt Q06124)” was run?
Answer: 0.0387

Question: And the “probe-labelled cysteine peptide fold change” value (50 µM)?
Answer: 0.0834

Question: Which “probe-labelled cysteine peptide fold change” value (10 µM) does the source give for “RBM5_P52756_649_MACLLCR (UniProt P52756)” here?
Answer: -0.00855

Question: And the “probe-labelled cysteine peptide fold change” value (50 µM)?
Answer: 0.0626

Question: How did the “probe-labelled cysteine peptide fold change” value (10 µM) turn out when RBM47_A0AV96_71_GCEVFVGK was run?
Answer: -0.0661

Question: And the “probe-labelled cysteine peptide fold change” value (50 µM)?
Answer: 0.127

Question: Which “probe-labelled cysteine peptide fold change” value (10 µM) does the source give for “RNASE2_P10153_138_YAQTPANMFYIVACDNR (UniProt P10153)” here?
Answer: 0.0539

Question: And the “probe-labelled cysteine peptide fold change” value (50 µM)?
Answer: -0.146

Question: “RAN_P62826_120_VCENIPIVLCGNKVDIK (UniProt P62826)” was tested. Which “probe-labelled cysteine peptide fold change” value (10 µM) did it give?
Answer: -0.364

Question: What about the “probe-labelled cysteine peptide fold change” value (50 µM) of the same target?
Answer: -0.326

Question: Which results are given for “PSMD2_Q13200_205_EIVPYNMAHNAEHEACDLLMEIEQVDMLEK (UniProt Q13200)”?
Answer: probe-labelled cysteine peptide fold change (10 µM): -0.106; probe-labelled cysteine peptide fold change (50 µM): -0.368

Question: “RLF_Q13129_1383_HCSDSHNLDHIEEPK (UniProt Q13129)” was tested. Which “probe-labelled cysteine peptide fold change” value (10 µM) did it give?
Answer: 0.194

Question: And the “probe-labelled cysteine peptide fold change” value (50 µM)?
Answer: -0.382

Question: How did the “probe-labelled cysteine peptide fold change” value (10 µM) turn out when “RECQL5_O94762_977_CESEADWHGLCGPQR (UniProt O94762)” was run?
Answer: 0.184

Question: What about the “probe-labelled cysteine peptide fold change” value (50 µM) of the same target?
Answer: 0.135

Question: Which “probe-labelled cysteine peptide fold change” value (10 µM) does the source give for “RASGRP4_Q8TDF6_502_LSGNFPFACHGLHPPPR (UniProt Q8TDF6)” here?
Answer: -0.133

Question: What about the “probe-labelled cysteine peptide fold change” value (50 µM) of the same target?
Answer: -0.088

Question: Which results are given for PXK_Q7Z7A4_252_KYCNPK (UniProt Q7Z7A4)?
Answer: probe-labelled cysteine peptide fold change (10 µM): 0.0209; probe-labelled cysteine peptide fold change (50 µM): -0.0879

Question: “RNH1_P13489_209+216_LESCGVTSDNCR (UniProt P13489)” was tested. Which “probe-labelled cysteine peptide fold change” value (10 µM) did it give?
Answer: 0.031

Question: “QARS_P47897_657_GPSGCVESLEVTCR (UniProt P47897)” was tested. Which “probe-labelled cysteine peptide fold change” value (10 µM) did it give?
Answer: 0.172

Question: What about the “probe-labelled cysteine peptide fold change” value (50 µM) of the same target?
Answer: 0.386

Question: With “RAB32_Q13637_162_DSSQSPSQVDQFCK (UniProt Q13637)” as the target, how does the “probe-labelled cysteine peptide fold change” value (10 µM) read?
Answer: 0.143

Question: And the “probe-labelled cysteine peptide fold change” value (50 µM)?
Answer: 0.144

Source: the supplement of paper PMC12067093, “Discovery and optimisation of a covalent ligand for TRIM25 and its application to targeted protein ubiquitination” (Chemical Science, 2025)
